About 17,000 (4.4%) of roughly 390,000 compounds were called active. Inconclusive means that the source gave no clear call. Such entries were picked first, then a sample of the others. The call rests on the fitted dose curve; in most records, active means well fitted inhibition curve with a large enough effect; inconclusive means small, poorly fitted or top-dose-only effect; inactive means no such curve, though single readings can be large or run the other way. Where the call is inconclusive, the potency comes from a doubtful curve fit.
Biological target: Lysine-specific demethylase 4A (Homo sapiens) (UniProt O75164)
UniProt O75164, sequence (O75164 whole entry, looked up, the tested form may be a part): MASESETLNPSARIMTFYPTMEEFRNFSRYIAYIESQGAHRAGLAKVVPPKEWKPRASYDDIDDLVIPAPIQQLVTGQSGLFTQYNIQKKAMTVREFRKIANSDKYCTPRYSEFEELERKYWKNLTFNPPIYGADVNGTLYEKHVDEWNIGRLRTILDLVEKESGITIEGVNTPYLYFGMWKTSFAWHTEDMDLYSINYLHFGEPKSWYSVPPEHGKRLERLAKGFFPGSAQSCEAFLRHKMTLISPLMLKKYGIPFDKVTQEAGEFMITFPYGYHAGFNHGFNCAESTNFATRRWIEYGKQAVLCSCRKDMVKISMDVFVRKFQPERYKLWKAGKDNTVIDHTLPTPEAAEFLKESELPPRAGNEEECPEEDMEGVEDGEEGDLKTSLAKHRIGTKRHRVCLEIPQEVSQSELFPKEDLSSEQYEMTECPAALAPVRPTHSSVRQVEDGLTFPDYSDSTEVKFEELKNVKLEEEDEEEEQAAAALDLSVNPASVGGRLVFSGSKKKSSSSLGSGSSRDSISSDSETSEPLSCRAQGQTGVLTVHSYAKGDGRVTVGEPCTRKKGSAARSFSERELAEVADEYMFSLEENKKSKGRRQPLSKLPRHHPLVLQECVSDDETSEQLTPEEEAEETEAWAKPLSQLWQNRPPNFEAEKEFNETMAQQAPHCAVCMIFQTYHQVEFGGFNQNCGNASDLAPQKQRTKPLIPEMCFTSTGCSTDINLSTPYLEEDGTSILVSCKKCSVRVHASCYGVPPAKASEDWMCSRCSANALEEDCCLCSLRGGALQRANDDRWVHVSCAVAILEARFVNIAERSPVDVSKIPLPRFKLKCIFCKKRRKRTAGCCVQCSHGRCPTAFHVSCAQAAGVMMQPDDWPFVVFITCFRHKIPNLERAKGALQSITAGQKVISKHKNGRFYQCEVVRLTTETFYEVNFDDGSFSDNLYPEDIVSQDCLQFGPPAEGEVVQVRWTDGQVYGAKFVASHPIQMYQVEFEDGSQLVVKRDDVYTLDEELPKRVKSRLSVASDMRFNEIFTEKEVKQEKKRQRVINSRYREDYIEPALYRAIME
Assay: qHTS Assay for Inhibitors of JMJD2A-Tudor Domain; further: nearly all actives have a fitted effect of over 50% in size
Details: AlphaScreen JMJD2A-Tudor / H3K4me3 peptide binding; series mostly up to 114 µM
Potency means the concentration at half of the fitted maximal effect; tags describe the fitted curve by direction and shape.

Row | Structure (SMILES) | Potency
1 | NC(=O)c1ccc(/C=N/O)nc1 | active: 17.8 µM
2 | c1ccc2c(c1)CC/C2=N/Nc1nc2ccccc2[nH]1 | inactive
3 | O=C(NC1CCCCCC1)c1cc(-c2ccccn2)nc2ccccc12 | inactive
4 | O=C(Nc1ccc(Nc2ccncc2)cc1)c1ccc(Nc2ccnc3ccc([N+](=O)[O-])cc23)cc1 | active: 100 µM
5 | O=[N+]([O-])c1cc([N+](=O)[O-])c2nonc2c1Nc1ccc(O)cc1 | active: 50.1 µM
6 | COc1ccc(/C=C/C(=O)N/C(=C\c2ccco2)C(=O)NCCc2nc3ccccc3[nH]2)cc1 | inconclusive: 63.1 µM [inhibitor, single point]
7 | O=C(c1ccccc1F)N1c2nc(-c3ccco3)nn2C2(CCCCC2)[C@@H]2CCCC[C@@H]21 | inconclusive: 56.2 µM [inhibitor, partial curve, poor fit]
8 | CC(=O)c1cccc(OCC(=O)N(C)CC(=O)NCc2ccco2)c1 | active: 22.4 µM
9 | N=c1c2c(ncn1Cc1ccco1)Oc1c(ccc3ccccc13)C2c1ccccc1 (stereo unspecified) | inconclusive: 22.4 µM [inhibitor, full curve, poor fit]
10 | Cc1cc(/C=C2/NC(=O)NC2=O)c(C)n1-c1ccccn1 | inactive
11 | CCc1nc2nc(C)c(NS(=O)(=O)c3ccc(C)c(C)c3)c(=O)n2[nH]1 | inconclusive: 63.1 µM [inhibitor, partial curve, poor fit]
12 | COc1ccccc1N(C)S(=O)(=O)c1ccc(C(=O)Nc2ccc(N3CCOCC3)cc2)cc1 | inconclusive: 50.1 µM [inhibitor, partial curve, poor fit]
13 | CC(C)NC(=O)/C(=C/c1cn(-c2ccccc2)nc1-c1cccc([N+](=O)[O-])c1)NC(=O)c1ccccc1 | inconclusive: 31.6 µM [inhibitor, partial curve]
14 | COC(=O)c1nc2n(n1)C(c1cc(OC)ccc1OC)C=C(c1ccc(Br)cc1)N2 (stereo unspecified) | inconclusive: 44.7 µM [inhibitor, partial curve]
15 | CCCC(=O)NNc1cc(=O)c2c(=O)n(C)c(=O)n(C)c2[nH]1 | inconclusive: 89.1 µM [inhibitor, single point]
16 | CCc1ccc(CN(C(=O)Nc2cccc(Cl)c2)c2ccccn2)cc1 | inactive
17 | COc1ccc(/C=N/Nc2cc(N3CCOCC3)ncn2)c(OC)c1 | inactive
18 | CC(NC(=O)c1ccc(F)cc1)C(=O)NC1=NCCS1 (stereo unspecified) | inconclusive: 39.8 µM [inhibitor, single point]
19 | CCOC(=O)C1=C(CC)Nc2ccccc2N/C1=N\S(=O)(=O)c1cc(Br)ccc1Br | inconclusive: 31.6 µM [inhibitor, partial curve]
20 | CC(=O)NC12CC3CC(C1)CC(C(=O)N1CCN(S(=O)(=O)c4cccc(C(F)(F)F)c4)CC1)(C3)C2 | inactive
21 | Cc1ccc(C(=O)NC2CCN(CC(=O)NC3CCC(C)CC3)CC2)cc1 (stereo unspecified) | inactive
22 | O=c1oc2ccc(Cl)cc2nc1/C=C(\O)c1cccs1 | inconclusive: 89.1 µM [inhibitor, single point]
23 | c1ccc(-c2nnc(N3CCN(c4ccccc4)CC3)nc2-c2ccccc2)cc1 | inconclusive: 25.1 µM [inhibitor, full curve]

Row | Structure (SMILES) | Potency
24 | Cc1cn2c(=O)c(S(=O)(=O)Nc3ccc(N4CCOCC4)cc3)c(C)nc2s1 | inactive
25 | N#Cc1c(-c2ccccc2)c(-c2ccccc2)nn(CC(=O)NNC(=O)Nc2ccc(Cl)cc2)c1=O | inconclusive: 35.5 µM [inhibitor, partial curve]
26 | CC(C)(C)c1n[nH]c(=S)n(N)c1=O | active: 5.01 µM
27 | Oc1ccc[n+](CC(O)c2ccccc2)c1 (stereo unspecified) | inconclusive: 79.4 µM [inhibitor, partial curve]
28 | COc1ccc(CCCc2n[nH]c(=S)n2C)cc1C | active: 5.62 µM
29 | CCOC(=O)C1=CN(Cc2ccccc2)CCC1=O | inactive
30 | Cc1ccc(-c2onc(C)c2C)cc1S(=O)(=O)Nc1cccc(Cl)c1C | inactive
31 | CCN1CCN(C(=O)c2ccc3c(c2)c(C)c(C)n3Cc2ccccc2)CC1 | inconclusive: 15.8 µM [inhibitor, full curve, poor fit]
32 | Cn1c(/C=N/Nc2nc3ccccc3[nH]2)nc2ccccc21 | inconclusive: 50.1 µM [inhibitor, partial curve, poor fit]
33 | Cc1ccc(C(C)C)c(OCC(=O)N/N=C/c2cccn2C)c1 | inconclusive: 28.2 µM [inhibitor, full curve]
34 | CCOC(=O)c1sc(N2C(=O)C(O)=C(C(=O)c3ccco3)C2c2ccc([N+](=O)[O-])cc2)nc1C (stereo unspecified) | inconclusive: 50.1 µM [inhibitor, partial curve]
35 | CCCN(CCC)C(=O)C1CCCN(S(=O)(=O)c2cc(Br)cc3c2N(C(=O)CC)CC3)C1 (stereo unspecified) | inactive
36 | O=C1CCSc2cccc3cccc(c23)N1 | inactive
37 | COc1ccc(-c2ccc(SCC(=O)NCc3ccco3)nn2)cc1OC | inconclusive: 39.8 µM [inhibitor, partial curve]
38 | Cc1cc(C)c(S(=O)(=O)N2CCCCC2CCNC(=O)C(=O)NCc2ccco2)c(C)c1 (stereo unspecified) | inconclusive: 50.1 µM [inhibitor, partial curve]
39 | CSCCC(NC(=O)c1cccc(C)c1)C(=O)OCC(=O)Nc1c(C)nn(-c2ccccc2)c1C (stereo unspecified) | inactive
40 | CC1=C(CC(=O)c2ccccc2)C(=O)c2ccccc2C1=O | active: 35.5 µM
41 | Cc1ccc(S(=O)(=O)Nc2c(C)nn(C)c2C)cc1C | inactive
42 | CC1(C)CC(=O)C2=C(C1)OC(N)=C(C#N)C2c1ccc[nH]1 (stereo unspecified) | inconclusive: 79.4 µM [inhibitor, partial curve]
43 | COc1ccc(C(=O)NC(=S)NCc2ccco2)cc1OC | inconclusive: 56.2 µM [inhibitor, partial curve]
44 | COc1ccccc1NC(=O)CN1CCN(CC(=O)Nc2ccc3c(c2)OCO3)CC1 | inactive
45 | O=C(/C=C/c1ccc(F)cc1)NC(=S)N1CCCCC1c1cccnc1 (stereo unspecified) | inconclusive: 89.1 µM [inhibitor, partial curve]
46 | O=C(Nc1cc(=O)[nH]c2ncnn12)c1ccccc1Cl | inconclusive: 17.8 µM [inhibitor, full curve, poor fit]

Reference: PubChem BioAssay AID504339 (National Center for Advancing Translational Sciences (NCATS), 2011)
